Drawing on the antibiotic and cytotoxicity screens of Wong et al. (2023), this text covers cytotoxicity call for 30 compounds.

Structures are written as SMILES. The list shows a part of the results.

For the assay, the system named is HepG2. The assay is described as follows: cytotoxicity call (relative viability < 0.9). To be noted: 10 µM.
As to `C[C@@H]1CN([C@@H](C)CO)C(=O)c2cccc(NS(=O)(=O)c3cn(C)cn3)c2O[C@@H]1CN(C)S(C)(=O)=O`, the cytotoxicity call was “inactive”. `COc1ccc2c3c(n(c2c1)C)[C@@H](CO)N(CC1CCOCC1)C[C@]13CN(C1)C(=O)c1cccc(c1)F`: the cytotoxicity call was “inactive”. The same measure for `COc1ccc(NC(=O)N(C)C[C@@H]2OCCCC[C@H](C)Oc3ccc(NC(=O)Cc4ccccc4)cc3C(=O)N([C@H](C)CO)C[C@@H]2C)cc1`: “inactive”; for `C[C@@H]1CCCCO[C@H](CN(C)S(=O)(=O)c2ccc(F)cc2)[C@@H](C)CN([C@H](C)CO)C(=O)c2cc(NC(=O)Nc3ccc4c(c3)OCO4)ccc2O1`: “active”; for `CC(C)NC(=O)Nc1ccc2c(c1)CC(=O)N([C@H](C)CO)C[C@@H](C)[C@H](CN(C)Cc1ccc(C(=O)O)cc1)O2`: “inactive”.

`C[C@@H]1CN([C@H](C)CO)C(=O)c2cc(NC(=O)CCC(F)(F)F)ccc2O[C@@H](C)CCCCO[C@H]1CN(C)C(=O)CCC(F)(F)F`: the cytotoxicity call is “inactive”.

For `COc1ccc(-c2coc3cc(OC)ccc3c2=O)c(O)c1`, the cytotoxicity call is “inactive”. With `C[C@H](CO)N1C[C@H](C)[C@H](CN(C)CC2CC2)Oc2ccc(NC(=O)Cn3cnnn3)cc2CC1=O` the entry was “inactive”; with `O=c1[nH]c(=O)n([C@@H]2C[C@@H](O)[C@@H](CO)O2)cc1F`, “inactive”. On to `CC(=O)Nc1c(I)c(C(=O)N[C@@H]2[C@@H](O)[C@H](O)[C@@H](CO)O[C@@H]2O)c(I)c(N(C)C(C)=O)c1I`, for which the cytotoxicity call is “inactive”. With `COc1ccc(NC(=O)Nc2ccc3c(c2)C(=O)N([C@H](C)CO)C[C@@H](C)[C@H](CN(C)C(=O)Nc2ccc(C(F)(F)F)cc2)O3)cc1` the entry was “inactive”. With `C[C@@H]1CN([C@@H](C)CO)C(=O)Cc2cc(NS(=O)(=O)c3cn(C)cn3)ccc2O[C@@H]1CN(C)C(=O)Nc1ccc(F)cc1` the entry was “inactive”; with `CC(=O)N1CCC2(CCCN2)CC1`, “inactive”. For the compound `C[C@H](CO)N1C[C@H](C)[C@H](CN(C)C(=O)Nc2ccc3c(c2)OCO3)OCCCC[C@H](C)Oc2ccc(NC(=O)NC3CCCCC3)cc2C1=O`, the cytotoxicity call was “inactive”. With `C[C@@H]1CN([C@@H](C)CO)S(=O)(=O)c2ccc(C#CCN(C)C)cc2O[C@@H]1CN(C)C(=O)CN(C)C` the entry was “inactive”. With `C[C@H](CO)N1C[C@H](C)[C@@H](CN(C)C(=O)Nc2ccc3c(c2)OCO3)OCCCC[C@H](C)Oc2ccc(NC(=O)Nc3ccc(F)cc3)cc2C1=O` the entry was “inactive”; with `C[C@H]1CN([C@@H](C)CO)C(=O)Cc2cc(NC(=O)Cn3cnnn3)ccc2O[C@H]1CN(C)S(=O)(=O)c1ccccc1`, “inactive”; with `O=C(C[C@@H]1C=C[C@@H](NC(=O)c2cccnc2)[C@@H](CO)O1)NCc1ccncn1`, “inactive”.

Take `COc1ccccc1-c1ccc2c(c1)O[C@H](CN(C)S(=O)(=O)c1ccccc1)[C@H](C)CN([C@@H](C)CO)S2(=O)=O`: the cytotoxicity call is “inactive”.

With `C[C@@H]1CCCCO[C@H](CN(C)C(=O)c2ccccc2)[C@@H](C)CN([C@@H](C)CO)C(=O)c2cc(NC(=O)Nc3ccc(C(F)(F)F)cc3)ccc2O1`, the cytotoxicity call was “inactive”. Regarding `Cc1ccc(S(=O)(=O)N(C)C[C@@H]2Oc3ncc(Br)cc3C(=O)N([C@@H](C)CO)C[C@H]2C)cc1`, the cytotoxicity call is “inactive”. The same measure for `CCCC(=O)Nc1ccc2c(c1)OC[C@H](C)N(Cc1ccc(-c3ccccn3)cc1)C[C@H](C)[C@@H](OC)CN(C)C2=O`: “inactive”; for `COCC(=O)Nc1ccc2c(c1)C(=O)N(C)C[C@H](OC)[C@@H](C)CN(C(=O)Cc1cccnc1)[C@@H](C)CO2`: “inactive”. `CC(C)NC(=O)Nc1cccc2c1O[C@@H](CN(C)S(=O)(=O)c1cccs1)[C@@H](C)CN([C@@H](C)CO)C2=O`: the cytotoxicity call is “inactive”. Regarding `CO[C@H]1CN(C)C(=O)c2cc(NS(C)(=O)=O)ccc2OC[C@@H](C)N(C(=O)CN(C)C)C[C@H]1C`, the cytotoxicity call is “inactive”. The same measure for `COc1ccc(CN(C)C[C@H]2OCCCC[C@@H](C)Oc3ccc(NS(=O)(=O)c4ccc(Cl)cc4)cc3C(=O)N([C@H](C)CO)C[C@H]2C)cc1`: “inactive”; for `NC(=O)C1N=CN([C@@H]2O[C@H](CO)[C@@H](O)[C@H]2O)C1=O` (stereo not given in full): “inactive”. On to `C[C@H](CO)N1C[C@H](C)[C@@H](CN(C)S(=O)(=O)c2ccccc2)Oc2ncc(Br)cc2C1=O`, for which the cytotoxicity call was “inactive”.

For `Cc1noc(C)c1NC(=O)Nc1ccc2c(c1)C(=O)N([C@H](C)CO)C[C@H](C)[C@@H](CN(C)CC1CCCCC1)OCCCC[C@@H](C)O2`, the cytotoxicity call was “inactive”. With `CCCN(C)C[C@H]1OCCCC[C@@H](C)Oc2ccc(NS(=O)(=O)c3cn(C)cn3)cc2C(=O)N([C@@H](C)CO)C[C@H]1C` the entry was “inactive”.
